Laboratory results reported in the supplement of paper PMC8728848.
The other results are listed elsewhere or left out.

How the values were obtained:
Assay in all cases: glycan array binding signal (z-score within array); higher = stronger binding
Conditions in all cases: glycan notation: IUPAC condensed, linker removed
Fuc(a1-2)Gal = target: Fuc(a1-2)Gal
Outline: (§1)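 Glycan array data came from 3228 arrays in the Consortium for Functional Glycomics database, and only arrays with an available protein sequence were kept. Glycan names were put into IUPAC-condensed notation, and columns mapping to the same glycan were averaged. The binding signal is a within-array Z-score, averaged across arrays of one protein sequence run at different concentrations or buffers and across linkers. A negative Z-score can be read as non-binding.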

Fuc(a1-2)Gal(b1-3)GalNAc = target: Fuc(a1-2)Gal(b1-3)GalNAc
Outline: as §1

[1] = target: Fuc(a1-2)Gal(b1-3)GalNAc(a1-3)[Fuc(a1-2)]Gal(b1-4)Glc
Outline: as §1

[2] = target: Fuc(a1-2)Gal(b1-3)GalNAc(a1-3)[Fuc(a1-2)]Gal(b1-4)GlcNAc
Outline: as §1

[3] = target: Fuc(a1-2)Gal(b1-3)GalNAc(b1-3)Gal
Outline: as §1

[4] = target: Fuc(a1-2)Gal(b1-3)GalNAc(b1-3)Gal(a1-4)Gal(b1-4)Glc
Outline: as §1

[5] = target: Fuc(a1-2)Gal(b1-3)GalNAc(b1-4)[Neu5Ac(a2-3)]Gal(b1-4)Glc
Outline: as §1

Fuc(a1-2)Gal(b1-3)GlcNAc = target: Fuc(a1-2)Gal(b1-3)GlcNAc
Outline: as §1

[6] = target: Fuc(a1-2)Gal(b1-3)GlcNAc(b1-2)Man(a1-3)[Fuc(a1-2)Gal(b1-3)GlcNAc(b1-2)Man(a1-6)]Man(b1-4)GlcNAc(b1-4)GlcNAc
Outline: as §1

[7] = target: Fuc(a1-2)Gal(b1-3)GlcNAc(b1-2)Man(a1-3)[Fuc(a1-2)Gal(b1-3)GlcNAc(b1-2)Man(a1-6)]Man(b1-4)GlcNAc(b1-4)[Fuc(a1-6)]GlcNAc
Outline: as §1

[8] = target: Fuc(a1-2)Gal(b1-3)GlcNAc(b1-3)Gal(b1-4)Glc
Outline: as §1

[9] = target: Fuc(a1-2)Gal(b1-3)GlcNAc(b1-3)GalNAc
Outline: as §1

[10] = target: Fuc(a1-2)Gal(b1-3)GlcNAc(b1-3)[Fuc(a1-2)Gal(b1-3)GlcNAc(b1-6)]GalNAc
Outline: as §1

[11] = target: Fuc(a1-2)Gal(b1-3)GlcNAc(b1-3)[Fuc(a1-3)[Gal(b1-4)]GlcNAc(b1-6)]Gal(b1-4)Glc
Outline: as §1

[12] = target: Fuc(a1-2)Gal(b1-3)GlcNAc(b1-3)[Gal(b1-4)GlcNAc(b1-6)]Gal(b1-4)Glc
Outline: as §1

[13] = target: Fuc(a1-2)Gal(b1-3)GlcNAc(b1-3)[Neu5Ac(a2-6)Gal(b1-4)GlcNAc(b1-6)]Gal(b1-4)Glc
Outline: as §1

[14] = target: Fuc(a1-2)Gal(b1-3)GlcNAc6S
Outline: as §1

[15] = target: Fuc(a1-2)Gal(b1-3)[Fuc(a1-4)]GlcNAc
Outline: as §1

[16] = target: Fuc(a1-2)Gal(b1-3)[Fuc(a1-4)]GlcNAc(b1-2)Man(a1-3)[Fuc(a1-2)Gal(b1-3)[Fuc(a1-4)]GlcNAc(b1-2)Man(a1-6)]Man(b1-4)GlcNAc(b1-4)GlcNAc
Outline: as §1

[17] = target: Fuc(a1-2)Gal(b1-3)[Fuc(a1-4)]GlcNAc(b1-2)Man(a1-6)[Fuc(a1-2)Gal(b1-3)[Fuc(a1-4)]GlcNAc(b1-2)Man(a1-3)]Man(b1-4)GlcNAc(b1-4)[Fuc(a1-6)]GlcNAc
Outline: as §1

[18] = target: Fuc(a1-2)Gal(b1-3)[Fuc(a1-4)]GlcNAc(b1-3)[Fuc(a1-3)[Gal(b1-4)]GlcNAc(b1-6)]Gal(b1-4)Glc
Outline: as §1

[19] = target: Fuc(a1-2)Gal(b1-3)[Fuc(a1-4)]GlcNAc(b1-3)[Gal(b1-4)GlcNAc(b1-6)]Gal(b1-4)Glc
Outline: as §1

B1: Gal 8 (Homo sapiens), O00214_1 (protein)
chain: MMLSLNNLQNIIYNPVIPFVGTIPDQLDPGTLIVIRGHVPSDADRFQVDLQNGSSMKPRADVAFHFNPRFKRAGCIVCNTLINEKWGREEITYDTPFKREKSFEIVIMVLKDKFQVAVNGKHTLLYGHRIGPEKIDTLGIYGKVNIHSIGFSFSSDLQSTQASSLELTEISRENVPKSGTPQLRLPFAARLNTPMGPGRTVVVKGEVNANAKSFNVDLLAGKSKDIALHLNPRLNIKAFVRNSFLQESWGEEERNITSFPFSPGMYFEMIIYCDVREFKVAVNGVHSLEYKHRFKELSSIDTLEINGDIHLLEVRSW
glycan array binding signal (z-score) (Fuc(a1-2)Gal): -0.233 | glycan array binding signal (z-score) (Fuc(a1-2)Gal(b1-3)GalNAc): -0.23 | glycan array binding signal (z-score) [1]: 1.91 | glycan array binding signal (z-score) [2]: 1.53 | glycan array binding signal (z-score) [3]: -0.194 | glycan array binding signal (z-score) [4]: -0.241 | glycan array binding signal (z-score) [5]: -0.227 | glycan array binding signal (z-score) (Fuc(a1-2)Gal(b1-3)GlcNAc): 0.18 | glycan array binding signal (z-score) [6]: 0.466 | glycan array binding signal (z-score) [7]: -0.127 | glycan array binding signal (z-score) [8]: 0.434 | glycan array binding signal (z-score) [9]: -0.254 | glycan array binding signal (z-score) [10]: -0.102 | glycan array binding signal (z-score) [11]: 0.221 | glycan array binding signal (z-score) [12]: 0.626 | glycan array binding signal (z-score) [13]: 0.368 | glycan array binding signal (z-score) [14]: 1.04 | glycan array binding signal (z-score) [15]: -0.224 | glycan array binding signal (z-score) [16]: 0.079 | glycan array binding signal (z-score) [17]: -0.138 | glycan array binding signal (z-score) [18]: -0.249 | glycan array binding signal (z-score) [19]: -0.224
